Legend:
Format in all cases: in vivo
Puccinia recondita = assay: Test Example E: Brown rust on wheat; details: for Test E (control value class): brown rust on wheat, Puccinia recondita; for Test E (control value class) / Test E control value (brown rust on wheat): 250 ppm spray; for Test E (control value class, brown rust on wheat): in vivo; for Test E control value (brown rust on wheat): preventive, control value class
From the text: [Test Example E] Brown Rust on Wheat

[1] = tested on: Blumeria graminis f sp. hordei; assay: Test Example D: Powdery mildew on barley; details: for Test D (control value class): powdery mildew on barley; for Test D (control value class) / Test D control value (powdery mildew on barley): 250 ppm spray; for Test D (control value class, powdery mildew on barley): in vivo; for Test D control value (powdery mildew on barley): preventive, control value class
From the text: [Test Example D] Powdery Mildew on Barley
After the sprayed dilutions were dried, conidia of Blumeria graminis f sp. hordei were inoculated to the plants by shaking off.

Alternaia brassicicola = assay: Test Example C: Alternaria sooty spot on cabbage; details: for Test C (control value class) / Test C control value (Alternaria sooty spot on cabbage): 250 ppm spray; for Test C (control value class, Alternaria sooty spot on cabbage): in vivo; for Test C control value (Alternaria sooty spot on cabbage): preventive, control value class
From the text: [Test Example C] Alternaria Sooty Spot on Cabbage
Seeds of a test plant (cabbage variety: Shikidori) were planted followed by cultivating until the cotyledons extended.

Botrytis cinerea = assay: Test Example B: Gray mold on tomato; details: for Test B (control value class): gray mold on tomato, Botrytis cinerea; for Test B (control value class) / Test B control value (gray mold on tomato): 250 ppm spray; for Test B (control value class, gray mold on tomato): in vivo; for Test B control value (gray mold on tomato): preventive, control value class
From the text: [Test Example B] Gray Mold on Tomato
Seeds of a test plant (tomato variety: Oogata Fukuju) were planted followed by cultivating until three to five first leaves (true leaves) appeared.

Plasmopara viticola = assay: Test Example G: Downy mildew on vine; details: for Test G (control value class): downy mildew on vine, Plasmopara viticola, 250 ppm spray; for Test G (control value class, downy mildew on vine): 250 ppm, sprayed 2.5 ml/pot before inoculation, evaluated 7-10 days after inoculation; for Test G control value (downy mildew on vine): 250 ppm spray (2.5 ml/pot), preventive, control value class
From the text: [Test Example G] Downy Mildew on Vine
Seeds of a test plant (grape variety: Neomuscat) were planted followed by cultivating until three to four first leaves appeared. […] After the sprayed dilutions were dried, a zoosporangia suspension (1-2×10^4 zoosporangia/ml) of Plasmopara viticola was inoculated to the plants by spraying.

[2] = Alternaria sooty spot on cabbage

CCn1c(-c2c(F)cc(F)cc2F)c(-c2cc(OC)ccc2Cl)cc(Cl)c1=O [Compound 404]
Test E (control value class) (Puccinia recondita): H (H shows more than 50% of control values) | Test D (control value class) [1]: H (H shows more than 50% of control values) | Test C (control value class) (Alternaia brassicicola; [2]): H (H shows more than 50% of control values) | Test B (control value class) (Botrytis cinerea): H (H shows more than 50% of control values) | Test G (control value class) (Plasmopara viticola; 7-10 days after inoculation): H (H shows more than 50% of control values)

CCOc1cc(F)c(-c2c(-c3cccc(F)c3C)cc(C)c(=O)n2CC)c(F)c1 [Compound 713]
Test E (control value class, brown rust on wheat) (Puccinia recondita): H (H shows more than 50% of control values) | Test D (control value class, powdery mildew on barley) [1]: H (H shows more than 50% of control values) | Test C (control value class, Alternaria sooty spot on cabbage) (Alternaia brassicicola): H (H shows more than 50% of control values) | Test B (control value class, gray mold on tomato) (Botrytis cinerea): H (H shows more than 50% of control values) | Test G (control value class, downy mildew on vine) (Plasmopara viticola): H (H shows more than 50% of control values)

CCn1c(-c2c(F)cccc2F)c(-c2cc(F)cc(F)c2Cl)ccc1=O [Compound 551]
Test E (control value class) (Puccinia recondita): H (H shows more than 50% of control values) | Test D (control value class) [1]: H (H shows more than 50% of control values) | Test C (control value class) (Alternaia brassicicola; [2]): H (H shows more than 50% of control values) | Test B (control value class) (Botrytis cinerea): H (H shows more than 50% of control values) | Test G (control value class) (Plasmopara viticola; 7-10 days after inoculation): L (L shows 50% or less of control values)

CCn1c(-c2c(F)cccc2F)c(-c2cc(OC)ccc2Cl)ccc1=O [Compound 582]
Test E (control value class, brown rust on wheat) (Puccinia recondita): H (H shows more than 50% of control values) | Test D (control value class, powdery mildew on barley) [1]: H (H shows more than 50% of control values) | Test C (control value class, Alternaria sooty spot on cabbage) (Alternaia brassicicola): H (H shows more than 50% of control values) | Test B (control value class, gray mold on tomato) (Botrytis cinerea): H (H shows more than 50% of control values) | Test G (control value class, downy mildew on vine) (Plasmopara viticola): H (H shows more than 50% of control values)

COc1cc(F)c(-c2c(-c3cc(OC)ccc3Cl)cc(C)c(=O)n2C)c(F)c1 [Compound 724]
Test E (control value class, brown rust on wheat) (Puccinia recondita): H (H shows more than 50% of control values) | Test D (control value class, powdery mildew on barley) [1]: L (L shows 50% or less of control values) | Test C (control value class, Alternaria sooty spot on cabbage) (Alternaia brassicicola): H (H shows more than 50% of control values) | Test B (control value class, gray mold on tomato) (Botrytis cinerea): H (H shows more than 50% of control values) | Test G (control value class, downy mildew on vine) (Plasmopara viticola): L (L shows 50% or less of control values)

CCOc1ccc(Cl)c(-c2ccc(=O)n(CC(F)F)c2-c2c(F)cccc2F)c1 [Compound 214]
Test E control value (brown rust on wheat) (Puccinia recondita): H (H shows more than 50% of control values) | Test D control value (powdery mildew on barley) [1]: H (H shows more than 50% of control values) | Test C control value (Alternaria sooty spot on cabbage) (Alternaia brassicicola): H (H shows more than 50% of control values) | Test B control value (gray mold on tomato) (Botrytis cinerea): H (H shows more than 50% of control values) | Test G control value (downy mildew on vine) (Plasmopara viticola; 7-10 days after inoculation): L (L shows 50% or less of control values)

CCCOc1cc(F)c(-c2c(-c3cc(OC)cc(OC)c3Cl)ccc(=O)n2C)c(F)c1 [Compound 281]
Test E control value (brown rust on wheat) (Puccinia recondita): H (H shows more than 50% of control values) | Test D control value (powdery mildew on barley) [1]: H (H shows more than 50% of control values) | Test C control value (Alternaria sooty spot on cabbage) (Alternaia brassicicola): H (H shows more than 50% of control values) | Test B control value (gray mold on tomato) (Botrytis cinerea): H (H shows more than 50% of control values) | Test G control value (downy mildew on vine) (Plasmopara viticola; 7-10 days after inoculation): H (H shows more than 50% of control values)

CCn1c(-c2c(F)cc(F)cc2F)c(-c2cccc(F)c2Cl)ccc1=O [Compound 486]
Test E (control value class) (Puccinia recondita): H (H shows more than 50% of control values) | Test D (control value class) [1]: H (H shows more than 50% of control values) | Test C (control value class) (Alternaia brassicicola; [2]): H (H shows more than 50% of control values) | Test B (control value class) (Botrytis cinerea): H (H shows more than 50% of control values) | Test G (control value class) (Plasmopara viticola; 7-10 days after inoculation): H (H shows more than 50% of control values)

O=c1ccc(-c2cccc(Cl)c2Cl)c(-c2c(F)cccc2F)n1CC(F)F [Compound 366]
Test E control value (brown rust on wheat) (Puccinia recondita): H (H shows more than 50% of control values) | Test D control value (powdery mildew on barley) [1]: H (H shows more than 50% of control values) | Test C control value (Alternaria sooty spot on cabbage) (Alternaia brassicicola): H (H shows more than 50% of control values) | Test B control value (gray mold on tomato) (Botrytis cinerea): H (H shows more than 50% of control values) | Test G control value (downy mildew on vine) (Plasmopara viticola; 7-10 days after inoculation): L (L shows 50% or less of control values)

COc1cc(F)c(-c2c(-c3cc(F)cc(F)c3Cl)ccc(=O)n2CC(F)F)c(F)c1 [Compound 678]
Test E (control value class, brown rust on wheat) (Puccinia recondita): H (H shows more than 50% of control values) | Test D (control value class, powdery mildew on barley) [1]: H (H shows more than 50% of control values) | Test C (control value class, Alternaria sooty spot on cabbage) (Alternaia brassicicola): H (H shows more than 50% of control values) | Test B (control value class, gray mold on tomato) (Botrytis cinerea): H (H shows more than 50% of control values) | Test G (control value class, downy mildew on vine) (Plasmopara viticola): H (H shows more than 50% of control values)

CCn1c(-c2c(F)cccc2F)c(-c2ccc(Cl)cc2Cl)cc(Cl)c1=O [Compound 333]
Test E control value (brown rust on wheat) (Puccinia recondita): H (H shows more than 50% of control values) | Test D control value (powdery mildew on barley) [1]: H (H shows more than 50% of control values) | Test C control value (Alternaria sooty spot on cabbage) (Alternaia brassicicola): L (L shows 50% or less of control values) | Test B control value (gray mold on tomato) (Botrytis cinerea): L (L shows 50% or less of control values) | Test G control value (downy mildew on vine) (Plasmopara viticola; 7-10 days after inoculation): L (L shows 50% or less of control values)

CCn1c(-c2c(F)cc(Br)cc2F)c(-c2cc(OC)cc(OC)c2Cl)ccc1=O [Compound 201]
Test E control value (brown rust on wheat) (Puccinia recondita): H (H shows more than 50% of control values) | Test D control value (powdery mildew on barley) [1]: H (H shows more than 50% of control values) | Test C control value (Alternaria sooty spot on cabbage) (Alternaia brassicicola): H (H shows more than 50% of control values) | Test B control value (gray mold on tomato) (Botrytis cinerea): H (H shows more than 50% of control values) | Test G control value (downy mildew on vine) (Plasmopara viticola; 7-10 days after inoculation): H (H shows more than 50% of control values)

COc1cc(-c2ccc(=O)n(C)c2-c2c(F)cc(Br)cc2F)cc(OC)c1Cl [Compound 206]
Test E control value (brown rust on wheat) (Puccinia recondita): H (H shows more than 50% of control values) | Test D control value (powdery mildew on barley) [1]: L (L shows 50% or less of control values) | Test C control value (Alternaria sooty spot on cabbage) (Alternaia brassicicola): H (H shows more than 50% of control values) | Test B control value (gray mold on tomato) (Botrytis cinerea): H (H shows more than 50% of control values) | Test G control value (downy mildew on vine) (Plasmopara viticola; 7-10 days after inoculation): H (H shows more than 50% of control values)

Cn1c(-c2c(F)cccc2F)c(-c2cccc(F)c2)ccc1=O [Compound 168]
Test E control value (Puccinia recondita; Brown rust on wheat): H (H shows more than 50% of control values) | Test D control value ([1]; Powdery mildew on barley): H (H shows more than 50% of control values) | Test C control value (Alternaia brassicicola; [2]): H (H shows more than 50% of control values) | Test B control value (Botrytis cinerea; Gray mold on tomato): H (H shows more than 50% of control values) | Test G control value (Plasmopara viticola; Downy mildew on vine, 250 ppm sprayed before inoculation, 7-10 days after inoculation): H (H shows more than 50% of control values)

CCn1c(-c2c(F)cccc2F)c(-c2ccccc2SCCl)cc(Cl)c1=O [Compound 210]
Test E control value (brown rust on wheat) (Puccinia recondita): L (L shows 50% or less of control values) | Test D control value (powdery mildew on barley) [1]: L (L shows 50% or less of control values) | Test C control value (Alternaria sooty spot on cabbage) (Alternaia brassicicola): H (H shows more than 50% of control values) | Test B control value (gray mold on tomato) (Botrytis cinerea): H (H shows more than 50% of control values) | Test G control value (downy mildew on vine) (Plasmopara viticola; 7-10 days after inoculation): L (L shows 50% or less of control values)

COc1cc(F)c(-c2c(-c3cc(F)cc(F)c3F)ccc(=O)n2C)c(F)c1 [Compound 550]
Test E (control value class) (Puccinia recondita): H (H shows more than 50% of control values) | Test D (control value class) [1]: H (H shows more than 50% of control values) | Test C (control value class) (Alternaia brassicicola; [2]): H (H shows more than 50% of control values) | Test B (control value class) (Botrytis cinerea): H (H shows more than 50% of control values) | Test G (control value class) (Plasmopara viticola; 7-10 days after inoculation): H (H shows more than 50% of control values)

COc1cc(OC)c(Cl)c(C2=C(c3c(F)cccc3F)N(CC(F)F)C(=O)CC2)c1 [Compound 336]
Test E control value (brown rust on wheat) (Puccinia recondita): H (H shows more than 50% of control values) | Test D control value (powdery mildew on barley) [1]: H (H shows more than 50% of control values) | Test C control value (Alternaria sooty spot on cabbage) (Alternaia brassicicola): H (H shows more than 50% of control values) | Test B control value (gray mold on tomato) (Botrytis cinerea): H (H shows more than 50% of control values) | Test G control value (downy mildew on vine) (Plasmopara viticola; 7-10 days after inoculation): H (H shows more than 50% of control values)

COCCCOc1ccc(Cl)c(-c2ccc(=O)n(C)c2-c2c(F)cccc2F)c1 [Compound 311]
Test E control value (brown rust on wheat) (Puccinia recondita): H (H shows more than 50% of control values) | Test D control value (powdery mildew on barley) [1]: H (H shows more than 50% of control values) | Test C control value (Alternaria sooty spot on cabbage) (Alternaia brassicicola): H (H shows more than 50% of control values) | Test B control value (gray mold on tomato) (Botrytis cinerea): H (H shows more than 50% of control values) | Test G control value (downy mildew on vine) (Plasmopara viticola; 7-10 days after inoculation): L (L shows 50% or less of control values)

Cn1c(-c2c(F)cccc2F)c(-c2c(F)c(F)c(F)c(F)c2F)ccc1=O [Compound 373]
Test E (control value class) (Puccinia recondita): H (H shows more than 50% of control values) | Test D (control value class) [1]: L (L shows 50% or less of control values) | Test C (control value class) (Alternaia brassicicola; [2]): L (L shows 50% or less of control values) | Test B (control value class) (Botrytis cinerea): H (H shows more than 50% of control values) | Test G (control value class) (Plasmopara viticola; 7-10 days after inoculation): L (L shows 50% or less of control values)
